Data from the supplement of paper PMC10369915.
This is one part of the list. Rule as the data show it: active = 3.2 or more and inactive = the rest. Most of these values are background signal.

target: SHP2 C-SH2 domain E139D; test: enrichment score (SH2-bound / input frequency) (ratio); bacterial display of known human phosphotyrosine sites (pTyr-Var adds point mutants) read by sequencing; higher = stronger binding; tyrosines were phosphorylated by kinases first; conditions: peptide library: Human pTyr
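Also: displayed peptides selected on beads carrying the immobilized SH2 domain, with library peptides lacking any tyrosine serving as negative controls.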

Binder	enrichment score
ALGADDSYATARSAG [ZAP70_HUMAN_492_YA]	inactive: 0.605
TSVYESPYSDPEELK [ZAP70_HUMAN_319]	inactive: 1.25
EEQPAPGYDTHGRLR [ZO1_HUMAN_1165]	inactive: 0.68
SLVKPENYRRLDIVR [VHL_HUMAN_175]	inactive: 1.02
SDDEGMPYTRPVKFK [WDR44_HUMAN_479]	inactive: 0.846
EGGEDPLYVARRLVR [WRIP1_HUMAN_534]	inactive: 0.57
CQSCVSEYKQVGSHP [ZMYM2_HUMAN_502]	inactive: 0.797
SEKGHRKYREYSPPY [ZC3H4_HUMAN_155]	inactive: 1.14
VLLVNRHYAKISDFG [ZAP70_HUMAN_474]	active: 3.48
KKDGLKFYTDPSYFF [WASF3_HUMAN_151]	inactive: 1.29
TTKDGWVYAANHTEE [WWOX_HUMAN_33_YA]	inactive: 0.788
ESDTEEFYDAPEDVH [WDR44_HUMAN_11]	inactive: 1.21
DDFRAPLYKTVEIKG [ZDHC5_HUMAN_91]	inactive: 0.904
SLSADIHYWIGQDSS [VIL1_HUMAN_64_YA]	inactive: 1.1
KLHCIVTYCEYCQEE [ZMYM2_HUMAN_680]	inactive: 1.9
DTLNSDGYTPEPARI [ZAP70_HUMAN_292]	inactive: 0.638
GHRKAREYSPPAAPS [ZC3H4_HUMAN_158_YA]	inactive: 0.742
KTASSLSYDIHAWIG [VIL1_HUMAN_60_YA]	inactive: 1.51

target: SHP2 C-SH2 domain wild-type; test: as above; conditions: peptide library: Human pTyr

Binder	enrichment score
ALGADDSYATARSAG [ZAP70_HUMAN_492_YA]	inactive: 0.532
TSVYESPYSDPEELK [ZAP70_HUMAN_319]	inactive: 0.915
EEQPAPGYDTHGRLR [ZO1_HUMAN_1165]	inactive: 0.545
SLVKPENYRRLDIVR [VHL_HUMAN_175]	inactive: 0.735
SDDEGMPYTRPVKFK [WDR44_HUMAN_479]	inactive: 0.763
EGGEDPLYVARRLVR [WRIP1_HUMAN_534]	inactive: 0.577
CQSCVSEYKQVGSHP [ZMYM2_HUMAN_502]	inactive: 0.724
SEKGHRKYREYSPPY [ZC3H4_HUMAN_155]	inactive: 0.983
VLLVNRHYAKISDFG [ZAP70_HUMAN_474]	active: 6.88
KKDGLKFYTDPSYFF [WASF3_HUMAN_151]	inactive: 1.67
TTKDGWVYAANHTEE [WWOX_HUMAN_33_YA]	inactive: 0.706
ESDTEEFYDAPEDVH [WDR44_HUMAN_11]	inactive: 1.11
DDFRAPLYKTVEIKG [ZDHC5_HUMAN_91]	inactive: 0.799
SLSADIHYWIGQDSS [VIL1_HUMAN_64_YA]	inactive: 1.12
KLHCIVTYCEYCQEE [ZMYM2_HUMAN_680]	inactive: 2.33
DTLNSDGYTPEPARI [ZAP70_HUMAN_292]	inactive: 0.462
GHRKAREYSPPAAPS [ZC3H4_HUMAN_158_YA]	inactive: 0.593
KTASSLSYDIHAWIG [VIL1_HUMAN_60_YA]	inactive: 1.54

target: SHP2 N-SH2 domain L43F; test: as above; conditions: peptide library: Human pTyr

Binder	enrichment score
ALGADDSYATARSAG [ZAP70_HUMAN_492_YA]	inactive: 0.597
TSVYESPYSDPEELK [ZAP70_HUMAN_319]	inactive: 0.591
EEQPAPGYDTHGRLR [ZO1_HUMAN_1165]	inactive: 0.908
SLVKPENYRRLDIVR [VHL_HUMAN_175]	inactive: 0.815
SDDEGMPYTRPVKFK [WDR44_HUMAN_479]	inactive: 0.981
EGGEDPLYVARRLVR [WRIP1_HUMAN_534]	inactive: 0.634
CQSCVSEYKQVGSHP [ZMYM2_HUMAN_502]	inactive: 0.556
SEKGHRKYREYSPPY [ZC3H4_HUMAN_155]	inactive: 1.07
VLLVNRHYAKISDFG [ZAP70_HUMAN_474]	inactive: 0.941
KKDGLKFYTDPSYFF [WASF3_HUMAN_151]	inactive: 1.15
TTKDGWVYAANHTEE [WWOX_HUMAN_33_YA]	inactive: 0.821
ESDTEEFYDAPEDVH [WDR44_HUMAN_11]	inactive: 1.24
DDFRAPLYKTVEIKG [ZDHC5_HUMAN_91]	inactive: 0.841
SLSADIHYWIGQDSS [VIL1_HUMAN_64_YA]	inactive: 1.04
KLHCIVTYCEYCQEE [ZMYM2_HUMAN_680]	inactive: 1.86
DTLNSDGYTPEPARI [ZAP70_HUMAN_292]	inactive: 0.506
GHRKAREYSPPAAPS [ZC3H4_HUMAN_158_YA]	inactive: 0.737
KTASSLSYDIHAWIG [VIL1_HUMAN_60_YA]	inactive: 1.58

target: SHP2 N-SH2 domain T42A; test: as above; conditions: peptide library: Human pTyr

Binder	enrichment score
ALGADDSYATARSAG [ZAP70_HUMAN_492_YA]	inactive: 0.482
TSVYESPYSDPEELK [ZAP70_HUMAN_319]	inactive: 0.604
EEQPAPGYDTHGRLR [ZO1_HUMAN_1165]	inactive: 0.62
SLVKPENYRRLDIVR [VHL_HUMAN_175]	inactive: 0.782
SDDEGMPYTRPVKFK [WDR44_HUMAN_479]	inactive: 0.661
EGGEDPLYVARRLVR [WRIP1_HUMAN_534]	inactive: 0.693
CQSCVSEYKQVGSHP [ZMYM2_HUMAN_502]	inactive: 0.699
SEKGHRKYREYSPPY [ZC3H4_HUMAN_155]	inactive: 0.997
VLLVNRHYAKISDFG [ZAP70_HUMAN_474]	inactive: 1.04
KKDGLKFYTDPSYFF [WASF3_HUMAN_151]	inactive: 1.46
TTKDGWVYAANHTEE [WWOX_HUMAN_33_YA]	inactive: 0.946
ESDTEEFYDAPEDVH [WDR44_HUMAN_11]	inactive: 1.11
DDFRAPLYKTVEIKG [ZDHC5_HUMAN_91]	inactive: 0.632
SLSADIHYWIGQDSS [VIL1_HUMAN_64_YA]	inactive: 1.18
KLHCIVTYCEYCQEE [ZMYM2_HUMAN_680]	inactive: 2.36
DTLNSDGYTPEPARI [ZAP70_HUMAN_292]	inactive: 0.531
GHRKAREYSPPAAPS [ZC3H4_HUMAN_158_YA]	inactive: 0.583
KTASSLSYDIHAWIG [VIL1_HUMAN_60_YA]	inactive: 1.4

target: SHP2 N-SH2 domain T52S; test: as above; conditions: peptide library: Human pTyr

Binder	enrichment score
ALGADDSYATARSAG [ZAP70_HUMAN_492_YA]	inactive: 0.461
TSVYESPYSDPEELK [ZAP70_HUMAN_319]	inactive: 0.524
EEQPAPGYDTHGRLR [ZO1_HUMAN_1165]	inactive: 0.653
SLVKPENYRRLDIVR [VHL_HUMAN_175]	inactive: 0.906
SDDEGMPYTRPVKFK [WDR44_HUMAN_479]	inactive: 0.771
EGGEDPLYVARRLVR [WRIP1_HUMAN_534]	inactive: 0.539
CQSCVSEYKQVGSHP [ZMYM2_HUMAN_502]	inactive: 0.741
SEKGHRKYREYSPPY [ZC3H4_HUMAN_155]	inactive: 1.14
VLLVNRHYAKISDFG [ZAP70_HUMAN_474]	inactive: 1.07
KKDGLKFYTDPSYFF [WASF3_HUMAN_151]	inactive: 1.58
TTKDGWVYAANHTEE [WWOX_HUMAN_33_YA]	inactive: 0.759
ESDTEEFYDAPEDVH [WDR44_HUMAN_11]	inactive: 1.42
DDFRAPLYKTVEIKG [ZDHC5_HUMAN_91]	inactive: 0.934
SLSADIHYWIGQDSS [VIL1_HUMAN_64_YA]	inactive: 1.12
KLHCIVTYCEYCQEE [ZMYM2_HUMAN_680]	inactive: 2.34
DTLNSDGYTPEPARI [ZAP70_HUMAN_292]	inactive: 0.497
GHRKAREYSPPAAPS [ZC3H4_HUMAN_158_YA]	inactive: 0.706
KTASSLSYDIHAWIG [VIL1_HUMAN_60_YA]	inactive: 1.52

target: SHP2 N-SH2 domain wild-type; test: as above; conditions: peptide library: Human pTyr

Binder	enrichment score
ALGADDSYATARSAG [ZAP70_HUMAN_492_YA]	inactive: 0.546
TSVYESPYSDPEELK [ZAP70_HUMAN_319]	inactive: 0.819
EEQPAPGYDTHGRLR [ZO1_HUMAN_1165]	inactive: 0.655
SLVKPENYRRLDIVR [VHL_HUMAN_175]	inactive: 0.961
SDDEGMPYTRPVKFK [WDR44_HUMAN_479]	inactive: 0.799
EGGEDPLYVARRLVR [WRIP1_HUMAN_534]	inactive: 0.557
CQSCVSEYKQVGSHP [ZMYM2_HUMAN_502]	inactive: 0.804
SEKGHRKYREYSPPY [ZC3H4_HUMAN_155]	inactive: 1.1
VLLVNRHYAKISDFG [ZAP70_HUMAN_474]	inactive: 1.15
KKDGLKFYTDPSYFF [WASF3_HUMAN_151]	inactive: 1.32
TTKDGWVYAANHTEE [WWOX_HUMAN_33_YA]	inactive: 0.936
ESDTEEFYDAPEDVH [WDR44_HUMAN_11]	inactive: 1.18
DDFRAPLYKTVEIKG [ZDHC5_HUMAN_91]	inactive: 1
SLSADIHYWIGQDSS [VIL1_HUMAN_64_YA]	inactive: 1.22
KLHCIVTYCEYCQEE [ZMYM2_HUMAN_680]	inactive: 2.65
DTLNSDGYTPEPARI [ZAP70_HUMAN_292]	inactive: 0.594
GHRKAREYSPPAAPS [ZC3H4_HUMAN_158_YA]	inactive: 0.777
KTASSLSYDIHAWIG [VIL1_HUMAN_60_YA]	inactive: 1.64
